From PMC4336329 (PLoS ONE, 2015)
About 2,200 (0.71%) of roughly 310,000 compounds showed an effect of 50% or more. Effects have a minus sign here. Some of the results follow.

biological target: human ether-à-go-go-related gene (hERG) potassium channel (human, UniProt Q12809); assay: primary screen, population patch clamp on CHO cells stably expressing hERG
Sequence (Q12809 whole entry, looked up): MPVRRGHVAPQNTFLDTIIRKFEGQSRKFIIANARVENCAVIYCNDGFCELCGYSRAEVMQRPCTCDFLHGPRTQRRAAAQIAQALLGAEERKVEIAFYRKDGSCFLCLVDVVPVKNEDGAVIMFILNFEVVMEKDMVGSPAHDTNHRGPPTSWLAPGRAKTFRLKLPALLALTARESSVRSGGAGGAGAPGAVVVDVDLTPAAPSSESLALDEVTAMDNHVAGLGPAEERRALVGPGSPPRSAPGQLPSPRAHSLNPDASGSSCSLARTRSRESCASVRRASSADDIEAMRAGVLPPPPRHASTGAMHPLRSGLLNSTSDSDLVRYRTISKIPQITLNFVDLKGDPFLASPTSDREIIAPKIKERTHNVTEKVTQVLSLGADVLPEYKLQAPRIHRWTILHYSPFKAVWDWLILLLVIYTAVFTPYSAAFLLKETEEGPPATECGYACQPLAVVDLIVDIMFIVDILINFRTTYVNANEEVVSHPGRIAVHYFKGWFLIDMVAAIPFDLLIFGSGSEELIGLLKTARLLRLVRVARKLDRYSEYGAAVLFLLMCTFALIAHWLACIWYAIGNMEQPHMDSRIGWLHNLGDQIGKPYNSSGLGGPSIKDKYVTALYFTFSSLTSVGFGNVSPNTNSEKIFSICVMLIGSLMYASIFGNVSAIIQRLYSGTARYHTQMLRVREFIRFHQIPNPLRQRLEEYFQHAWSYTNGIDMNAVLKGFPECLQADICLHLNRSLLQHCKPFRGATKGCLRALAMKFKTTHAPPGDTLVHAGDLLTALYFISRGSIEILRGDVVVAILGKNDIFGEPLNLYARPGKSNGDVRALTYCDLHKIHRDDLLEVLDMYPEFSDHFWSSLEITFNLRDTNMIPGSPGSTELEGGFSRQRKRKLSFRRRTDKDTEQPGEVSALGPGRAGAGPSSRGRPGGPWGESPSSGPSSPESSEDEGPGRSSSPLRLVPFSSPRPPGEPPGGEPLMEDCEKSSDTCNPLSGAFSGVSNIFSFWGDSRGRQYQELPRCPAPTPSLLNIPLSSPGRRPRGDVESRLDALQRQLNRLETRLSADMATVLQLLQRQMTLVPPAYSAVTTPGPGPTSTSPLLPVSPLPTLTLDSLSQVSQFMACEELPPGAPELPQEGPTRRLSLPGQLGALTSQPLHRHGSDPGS

| Structure (SMILES) | hERG current change (%, negative = inhibition) at 1uM |
| --- | --- |
| N#Cc1nc(-c2ccc(F)cc2)oc1NCc1cccc2c1OCO2 | 13.6% |
| CC(=O)C1=C(N2CCCCC2)CCC1=O | 13.2% |
| COc1ccc(NC(=O)c2nc[nH]c2C(=O)N(C)Cc2ccccc2)cc1 | 1.7% |
| Cc1ccccc1C(=O)OCC(=O)N(C)c1c(N)n(Cc2ccccc2)c(=O)[nH]c1=O | 10.5% |
| O=C(C1CCN(c2ncnc3c2nc2n3CCCCC2)CC1)N1CCCCC1 | 23.1% |
| O=C(Nc1ccccc1C(=O)N/N=C/c1ccco1)c1ccccc1Cl | 10.4% |
| COC(=O)c1cc(NC(=O)c2cccc(C(F)(F)F)c2)c(=O)oc1C | 11.8% |
| Cc1cc(Cl)ccc1NC(=O)/C=N/O | 10.3% |
| CC(=O)Nc1ccc(SCC(=O)OCC(=O)NC(=O)NCc2ccco2)cc1 | 20.6% |
| CC(c1ccccn1)N(CCN(C)C)C(=S)Nc1cccc(F)c1 (stereo not drawn) | 1.35% |
| Cc1cc(NC(=O)c2c([N+](=O)[O-])c(C)nn2C)no1 | 14.8% |
| CCC(C)NC(=O)CSc1nc2c(sc(=S)n2Cc2ccco2)c(=O)n1-c1ccccc1 (stereo not drawn) | -1.4% |
| COc1ccc(C2C(C)C3(O)CC(C#N)(C(=O)N3)C2(C#N)C#N)cc1 (stereo not drawn) | 7.88% |
| COc1nc(C)nc(NC(=O)NS(=O)(=O)c2ccc(C)cc2)n1 | 4.14% |
| Nc1ccc(C(=O)OCc2nc3ccccc3s2)cc1 | 3.72% |
| Cc1ccc(NC(=O)NNC(=O)C2CCN(Cc3ccc(F)cc3Cl)CC2)cc1 | 11.7% |
| Cc1ccc(CN=c2c([N+](=O)[O-])nn(-c3cccc(C)c3)n2O)cc1 | 1.77% |
| CCN1CCCC1CNC(=O)CCc1nnc(CCC2CCCCC2)o1 (stereo not drawn) | 6.65% |
| Fc1ccc(CSc2nnc(-c3cccnc3)o2)cc1 | 10.2% |
| COc1cccc(NC(=O)c2ncn[nH]2)c1 | 7.89% |
| O=C(COC(=O)C1CC(=O)N(C2CCCCC2)C1)c1ccc(F)cc1 (stereo not drawn) | -22.8% |
| O=C(CN1C(=O)c2ccccc2C1=O)N1CCN(c2nnc(-c3ccccc3)c3ccccc23)CC1 | 13.5% |
| N#Cc1ccccc1OCC(=O)OCC(=O)Nc1ccc2c(c1)OCO2 | 12.2% |

| Structure (SMILES) | hERG current change (%, negative = inhibition) at 1uM |
| --- | --- |
| CC(C)Cn1c(=O)c2ccccc2n2c(SCC(=O)N3c4ccccc4CC3C)nnc12 (stereo not drawn) | 8.07% |
| CCOC(=O)c1c(S(=O)(=O)NCC(=O)NCc2ccc(C)cc2)c(C)n(C)c1C | 15% |
| CN(CC1CCOCC1)C(=O)CC1C(=O)NCCN1Cc1ccc(-c2ccccc2)cc1 (stereo not drawn) | 10.8% |
| O=C(CSCc1cccs1)N1CCCC1 | 10.8% |
| Nc1ccc(C(=O)NCc2ccccc2)cc1 | 8.94% |
| CCOCC(=O)Nc1ccc(S(=O)(=O)Nc2nccs2)cc1 | 10.9% |
| CCCOc1ccc(C(CC(=O)O)NC(=O)c2ccc3c(c2)OCO3)cc1 (stereo not drawn) | 19% |
| COc1ccc(NC(=O)C2CC(=O)N(CCc3ccc(F)cc3)C2)c(OC)c1 (stereo not drawn) | 3.5% |
| CC(NC(=O)c1cn(C)c2ccc(S(=O)(=O)N3CCCC3)cc2c1=O)c1ccccc1 (stereo not drawn) | 10.7% |
| Cc1cc(-n2c(SCc3ccccc3F)nc3n[nH]c(C)c3c2=N)ccc1Cl | 2.82% |
| Cc1cc(C)n(CCCO)c(=O)c1C#N | 3.09% |
| COc1ccc(S(=O)(=O)NCC2CCC(C(=O)NCC(OC)OC)CC2)cc1 (stereo not drawn) | 5.35% |
| CC(NC(=O)c1ccc(C#N)cc1)C1CC2CCC1C2 (stereo not drawn) | -6.72% |
| CCCCCCCCCCCNC(=O)c1ccoc1C | 6.87% |
| COc1ccc(OC)c(/C=C/C(=O)c2ccc3c(c2)OCO3)c1 | 2.61% |
| COc1ccccc1C(C)NC(=O)c1ccccc1SCC(=O)N1CCCC1 (stereo not drawn) | 8.38% |
| O=c1c2ccccc2c(-c2ccccc2)nn1Cc1ccccc1 | 17.3% |
| C=CCOc1c(Cl)cc(CNc2ccc(C)c(Cl)c2)cc1OC | 8.63% |
| C=CCNC(=O)c1c(Cl)cccc1Cl | 6.34% |
| C/C(=N\OC(=O)c1ccccc1F)c1nccs1 | -3.73% |
| COc1cc(C(=O)N/N=C/c2ccsc2C)cc(OC)c1OC | 7.42% |
| Cc1csc(N2CCN(c3cc4nc(-c5ccncc5)[nH]c4cc3Cl)CC2)n1 | 10.2% |
